Data on 153 variants can be found in a collection of fitness landscapes (doi:10.1016/j.celrep.2020.107928).

B1: Caulobacter ParB omega fusion; a variant is named by its letters at X, in order, B8GW30 (parent)
chain: MESVVVGEPGMSEGRRGLGRGLSALLGEVDAAPAQAPGEQLGGSREAPIEILQRNPDQPRRTFREEDLEDLSNSIREKGVLQPILVRPSPDTAGEYQIVAGERAWRAAQRAGLKTVPIMVRELDDLAVLEIGIIENVQRADLNVLEEALSYKVLMEKFERTQENIAQTIGKSXSHVANXMRLLXLPDEVQSYLVSGELTAXHARAIAAAADPVALAKQIIEGGLSVRETEALARKAPNLSAGKSKGGRPPRVKDTDTQALESDLSSVLGLDVSIDHRGSTGTLTITYATLEQLDDLCNRLTRGI

Whole data set: some 81,000 sequences, median “one-hybrid fitness for binding NBS DNA” near -0.1, cut for the highest 2% near 0.36. The list shows a part of the results.

In this experiment the parent is B1. The experiment is described as follows: one-hybrid fitness for binding NBS DNA (the Noc-binding site; scaled: cognate 1, non-cognate 0); higher = stronger binding. To be noted: with NBS DNA site. An outline of the steps: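 On M9-minus-histidine containing 0.1 mM IPTG and 5 mM 3-AT, E. coli USO cells with a HIS3 reporter, site 19 bp from the promoter, grew 48 hours at 37°C to select Caulobacter ParB libraries randomised at four specificity codons. Plasmids from before and after were Illumina-sequenced, with three replicate libraries pooled and variants under 10 reads left out. Fitness is the log change in variant-to-wild-type read ratio, rescaled against cognate and non-cognate.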
In the case of PIQQ, the “one-hybrid fitness for binding NBS DNA” value was ≤ 0.2. To TLNE belongs ≤ 0.2; to PSKG, ≤ 0.2; to YPHD, ≤ 0.2. In the case of EMAC, the “one-hybrid fitness for binding NBS DNA” value was ≤ 0.2.

Regarding KFPC, the “one-hybrid fitness for binding NBS DNA” value was ≤ 0.2. Then MHVT, with ≤ 0.2; and IGDW, with ≤ 0.2.

On to TPYY, for which the “one-hybrid fitness for binding NBS DNA” value is ≤ 0.2.

Regarding SSWT, the “one-hybrid fitness for binding NBS DNA” value is ≤ 0.2. Then PGIS, with ≤ 0.2. Then APTG, with ≤ 0.2; and LTSD, with ≤ 0.2. With KSNN, the “one-hybrid fitness for binding NBS DNA” value is ≤ 0.2. Then VLHP, with ≤ 0.2. To GGDL belongs ≤ 0.2; to FWPG, ≤ 0.2; to HRTD, ≤ 0.2. As for AYDW, the “one-hybrid fitness for binding NBS DNA” value is ≤ 0.2. GRAS: the “one-hybrid fitness for binding NBS DNA” value is ≤ 0.2.

NAIH: the “one-hybrid fitness for binding NBS DNA” value was ≤ 0.2. Consider FRKN, for which the “one-hybrid fitness for binding NBS DNA” value was ≤ 0.2.

As to PLSY, the “one-hybrid fitness for binding NBS DNA” value was ≤ 0.2.

Regarding VRLC, the “one-hybrid fitness for binding NBS DNA” value is ≤ 0.2. To NRVS belongs ≤ 0.2. To MWWS belongs ≤ 0.2. To EDLS belongs ≤ 0.2. In the case of KLYC, the “one-hybrid fitness for binding NBS DNA” value was ≤ 0.2. To QSME belongs ≤ 0.2; to ATCR, ≤ 0.2. To PLYT belongs ≤ 0.2; to PAMG, ≤ 0.2; to WLRR, ≤ 0.2. Then IAFM, with ≤ 0.2; and MMPT, with ≤ 0.2; and PKKC, with ≤ 0.2. As for KMYA, the “one-hybrid fitness for binding NBS DNA” value was ≤ 0.2. To KWAS belongs ≤ 0.2; to STRP, ≤ 0.2; to CRVM, ≤ 0.2. To EYTA belongs ≤ 0.2; to ERQG, ≤ 0.2; to STTK, ≤ 0.2.

For IYIV, the “one-hybrid fitness for binding NBS DNA” value was ≤ 0.2. Then HSTR, with ≤ 0.2; and QCSF, with ≤ 0.2. To FHHC belongs ≤ 0.2. For TKVY, the “one-hybrid fitness for binding NBS DNA” value is ≤ 0.2.

With ERVG, the “one-hybrid fitness for binding NBS DNA” value was ≤ 0.2. To APPL belongs ≤ 0.2; to DGGS, ≤ 0.2. For PPMF, the “one-hybrid fitness for binding NBS DNA” value was ≤ 0.2.

Take YPFC: the “one-hybrid fitness for binding NBS DNA” value was ≤ 0.2. Regarding AAEP, the “one-hybrid fitness for binding NBS DNA” value is ≤ 0.2.

As to PSLW, the “one-hybrid fitness for binding NBS DNA” value is ≤ 0.2. To DRVV belongs ≤ 0.2; to TCIR, ≤ 0.2; to FDRV, ≤ 0.2. Then VVFC, with ≤ 0.2; and RIMW, with 0.253; and TWAF, with ≤ 0.2. Turning to CLRW, the “one-hybrid fitness for binding NBS DNA” value is ≤ 0.2. Then NWHD, with ≤ 0.2.

As for EHCS, the “one-hybrid fitness for binding NBS DNA” value is ≤ 0.2. Then CEFR, with ≤ 0.2; and HDTY, with ≤ 0.2; and KTDA, with ≤ 0.2. To NFAG belongs ≤ 0.2; to CLIH, ≤ 0.2; to YDWG, ≤ 0.2.

As for GGSF, the “one-hybrid fitness for binding NBS DNA” value is ≤ 0.2.

For VSHT, the “one-hybrid fitness for binding NBS DNA” value is ≤ 0.2. To PQGY belongs ≤ 0.2; to HAQY, ≤ 0.2; to QKID, ≤ 0.2.

For LREM, the “one-hybrid fitness for binding NBS DNA” value is ≤ 0.2. To VWKI belongs ≤ 0.2; to LEDW, ≤ 0.2. To LSRH belongs ≤ 0.2. For QRSI, the “one-hybrid fitness for binding NBS DNA” value was 0.296. Then NTAE, with ≤ 0.2; and AIWC, with ≤ 0.2. Consider YTST, for which the “one-hybrid fitness for binding NBS DNA” value is ≤ 0.2.

In the case of NIAY, the “one-hybrid fitness for binding NBS DNA” value was ≤ 0.2.

With KRAC, the “one-hybrid fitness for binding NBS DNA” value is ≤ 0.2. Then ANND, with ≤ 0.2. To VTAS belongs ≤ 0.2.

In the case of LHVT, the “one-hybrid fitness for binding NBS DNA” value is ≤ 0.2. To VIVS belongs ≤ 0.2. In the case of QSQH, the “one-hybrid fitness for binding NBS DNA” value amounted to 0.246. To YLAD belongs ≤ 0.2. Regarding KTMR, the “one-hybrid fitness for binding NBS DNA” value is ≤ 0.2. To NTTI belongs ≤ 0.2; to RRVC, 0.414. Then GPCI, with ≤ 0.2. To QCPV belongs ≤ 0.2.

Regarding NSLW, the “one-hybrid fitness for binding NBS DNA” value is ≤ 0.2. To LRLG belongs ≤ 0.2. ADTP: the “one-hybrid fitness for binding NBS DNA” value is ≤ 0.2. As for AKPN, the “one-hybrid fitness for binding NBS DNA” value is ≤ 0.2. To KRRD belongs ≤ 0.2. Then YQAR, with ≤ 0.2.

With LVED, the “one-hybrid fitness for binding NBS DNA” value is ≤ 0.2. To EVVR belongs ≤ 0.2; to MGVG, ≤ 0.2. Regarding QTAV, the “one-hybrid fitness for binding NBS DNA” value turned out to be 0.217.

Take RQDH: the “one-hybrid fitness for binding NBS DNA” value was ≤ 0.2. To NTRV belongs ≤ 0.2. To NHDW belongs ≤ 0.2; to ANKC, ≤ 0.2. To TLPL belongs ≤ 0.2; to KANL, ≤ 0.2; to RFSH, ≤ 0.2.

On to ETKR, for which the “one-hybrid fitness for binding NBS DNA” value is 0.278. As to CFRT, the “one-hybrid fitness for binding NBS DNA” value is ≤ 0.2. Then VVPP, with ≤ 0.2; and YLYR, with ≤ 0.2; and YSAG, with ≤ 0.2. To TPCD belongs ≤ 0.2. To DFLS belongs ≤ 0.2; to QKQI, ≤ 0.2. As to PEAN, the “one-hybrid fitness for binding NBS DNA” value was ≤ 0.2. To IPHV belongs ≤ 0.2. On to PVML, for which the “one-hybrid fitness for binding NBS DNA” value is ≤ 0.2. Then HTKM, with ≤ 0.2; and RGNG, with ≤ 0.2.

As for LDWL, the “one-hybrid fitness for binding NBS DNA” value was ≤ 0.2. To SAGE belongs ≤ 0.2; to ASPR, ≤ 0.2. To QIKP belongs ≤ 0.2; to TFKC, ≤ 0.2; to AWNS, ≤ 0.2. Turning to MQSY, the “one-hybrid fitness for binding NBS DNA” value was ≤ 0.2.

Regarding KGGI, the “one-hybrid fitness for binding NBS DNA” value is ≤ 0.2. Then ELCF, with ≤ 0.2; and SCAR, with ≤ 0.2. To RMNN belongs ≤ 0.2.

For the variant AYLA, the “one-hybrid fitness for binding NBS DNA” value was ≤ 0.2.

On to NWLE, for which the “one-hybrid fitness for binding NBS DNA” value was ≤ 0.2. Then LYAG, with ≤ 0.2. For the variant AMPN, the “one-hybrid fitness for binding NBS DNA” value is ≤ 0.2. To TAYR belongs ≤ 0.2. To RNWP belongs ≤ 0.2; to ASQT, ≤ 0.2.

For RFLM, the “one-hybrid fitness for binding NBS DNA” value was ≤ 0.2. To QGKN belongs ≤ 0.2; to HSPG, ≤ 0.2. Take PMST: the “one-hybrid fitness for binding NBS DNA” value is ≤ 0.2. LYCS: the “one-hybrid fitness for binding NBS DNA” value is ≤ 0.2. To RAWH belongs ≤ 0.2.

Turning to SKRA, the “one-hybrid fitness for binding NBS DNA” value was ≤ 0.2.

For LLCT, the “one-hybrid fitness for binding NBS DNA” value was ≤ 0.2. To NYER belongs ≤ 0.2.
